Reference: the supplement of paper PMC4894684
Structures can show the parent of a compound that is named as a salt. ± gives the standard deviation of the averaged measurements. The campaign covered roughly 1,000 compounds. About 15 (2%) showed an effect of 50% or more. The list shows a part of the results.

Each compound was assayed on HFF (assay: uninfected host cell viability relative to vehicle control; higher = less host cell toxicity). Conditions: 5 µM; 72 h; oxygen 21 %.
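Further: confluent HFF monolayers, run in parallel with the Toxoplasma growth screen as a host toxicity counterscreen.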

Row | Structure (SMILES) | uninfected host cell viability
1 | C/C(=N\NC(=O)C1C(=O)NCC1c1ccccc1)c1cccc(Br)c1 (stereo not given) | 88.1 ± 1.7%
2 | CN(C)CCCn1cc(C2=C(c3c[nH]c4ccccc34)C(=O)NC2=O)c2ccccc21 | 62.3 ± 1.5%
3 | COc1ccccc1N1CCN(CCCNc2cc(=O)n(C)c(=O)n2C)CC1 [Urapidil hydrochloride] | 89.4 ± 4.4%
4 | CN/C(=N\c1ccc(C2=NNC(=O)CC2C)cc1)NC#N (stereo not given) [Siguazodan] | 85.4 ± 1.3%
5 | COCC(=O)O[C@]1(CCN(C)CCCc2nc3ccccc3[nH]2)CCc2cc(F)ccc2[C@@H]1C(C)C [Mibefradil dihydrochloride] | 79.7 ± 4.6%
6 | Oc1cc2c(c(Cl)c1O)CCNCC2c1ccccc1 (stereo not given) | 87.931 ± 0.028%
7 | COc1ccc2[nH]c(C(=O)c3ccccc3)cc2c1 | 80.23 ± 0.49%
8 | CC(C)(CO)Cc1cc(C(C)(C)C)c(O)c(C(C)(C)C)c1 | 94.27 ± 0.8%
9 | CCc1cc2c(c(CC)n1)CCC(=O)N2Cc1ccc(-c2ccccc2-c2nn[nH]n2)cc1 [ZD 7155 hydrochloride] | 94.11 ± 0.49%
10 | O=[N+]([O-])c1cc2nc(O)c(O)nc2cc1[N+](=O)[O-] | 98.5 ± 2%
11 | CN(CCOc1ccc(C[C@H](Nc2ccccc2C(=O)c2ccccc2)C(=O)O)cc1)c1ccccn1 | 109 ± 9%
12 | O=C(Nc1cccc2cccnc12)c1ccc(N2C(=O)[C@@H]3[C@H](C2=O)[C@@H]2C=C[C@H]3C2)cc1 [endo-IWR 1] | 69.36 ± 0.36%
13 | O=C1CCC(N2C(=O)c3ccccc3C2=O)C(=O)N1 (stereo not given) [Thalidomide] | 87.1 ± 5%
14 | CCCCCCCCCCCC1=C(O)C(=O)C=C(O)C1=O [Embelin] | 83.69 ± 0.49%
15 | Nc1nc2c(ccc3ccccc32)s1 | 77.6 ± 1.3%
16 | CCCCCCCCCCCCCCCC(=O)C(F)(F)F | 91.66 ± 0.55%
17 | Cc1ccc(/C=C2\CNC/C(=C\c3ccc(C)cc3)C2=O)cc1 | 34.4 ± 5.5%
18 | CC(=O)N1CCN(C)CC1 [1-Acetyl-4-methylpiperazine hydrochloride] | 89.9 ± 1.1%
19 | CC1(C)CCC(C)(C)c2cc(C(=O)Nc3ccc(C(=O)O)cc3)ccc21 | 81.8 ± 2.3%
20 | Cc1ccc2c(=O)c3ccccc3n(CCCN)c2c1C | 55.7 ± 6.6%
21 | c1cc2c3c(c1)c1c(n3CCNC2)CCCC1 [WAY 629 hydrochloride] | 89.6 ± 5.6%
22 | O=C(Cc1ccccc1)Nc1nc2ccc(Cl)cc2c2nc(-c3ccco3)nn12 | 99.47 ± 0.4%
23 | CC(C)NC[C@H](O)COc1cccc2[nH]ccc12 [(S)-(-)-Pindolol] | 81.7 ± 2.5%

Row | Structure (SMILES) | uninfected host cell viability
24 | CCc1cc(-c2n[nH]c(C)c2-c2ccc3c(c2)OCCO3)c(O)cc1O | 79 ± 0.26%
25 | COc1ccc(NC(=O)c2ccc(-c3ccc(-c4noc(C)n4)cc3C)cc2)cc1N1CCN(C)CC1 | 70.2 ± 7.3%
26 | COc1ccc(CC(=O)NC(/N=C(\NC#N)Nc2cccc3ncccc23)C(C)(C)C)cc1OC (stereo not given) | 85.9 ± 2.2%
27 | O=C(O)C1(C(=O)O)CCC1.[NH2-].[NH2-].[Pt+2] [Carboplatin] | 89.5 ± 2.8%
28 | O=C(Nc1ccc([N+](=O)[O-])cc1O)Nc1ccccc1Br | 72.84 ± 0.22%
29 | O=c1c(O)c(-c2ccc(O)c(O)c2)oc2cc(O)cc(O)c12 [Quercetin] | 88.7 ± 2.6%
30 | COc1ccc2cccc(N3CCN(CCNC(=O)c4ccc(F)cc4)CC3)c2c1 | 82.7 ± 4%
31 | CN(C(=O)c1c(O)c2ccccc2n(C)c1=O)c1ccccc1 [Linomide] | 90.1 ± 1.9%
32 | CCN1CCC[C@H]1CNC(=O)c1c(O)c(Cl)cc(Cl)c1OC [Raclopride] | 86.3 ± 4.8%
33 | O=C(O)c1cccnc1C(=O)O [Quinolinic acid] | 90.8 ± 6.9%
34 | CCCCC[C@H](O)/C=C/[C@H]1[C@H](O)CC(=O)[C@@H]1CCCCCCC(=O)O [Alprostadil] | 91.7 ± 4.5%
35 | COc1cc2ncnc(Nc3ccc(F)c(Cl)c3)c2cc1OCCCN1CCOCC1 [Iressa] | 74 ± 2.6%
36 | [O-][S+](c1ccccc1)c1ccc2nnnn2n1 (stereo not given) | 97.9 ± 8%
37 | CN1CCC[C@@H]1CCO[C@](C)(c1ccccc1)c1ccc(Cl)cc1 [Clemastine fumarate] | 94.8 ± 1.1%
38 | c1ccc2oc(C3=NCCN3)cc2c1 [2-BFI hydrochloride] | 84.5 ± 0.93%
39 | CC/C(=C(\c1ccccc1)c1ccc(OCCN(C)C)cc1)c1ccccc1 [Tamoxifen citrate] | 95.385 ± 0.09%
40 | c1ccc(-c2n[nH]c3c2oc2ccccc23)cc1 | 76.7 ± 0.88%
41 | Cc1ccccc1N=Nc1ccc(NC(=O)c2ccnn2C)c(C)c1 | 85.4 ± 2%
42 | O=c1[nH]nc(Sc2ncc([N+](=O)[O-])s2)n1-c1ccc2c(c1)OCCO2 | 99.61 ± 0.28%
43 | c1ccc2nc(C3=NCCN3)cnc2c1 [BU 239 hydrochloride] | 90.45 ± 0.87%
44 | CCC(=O)NC[C@H](Cc1ccc(OCCc2nc(-c3ccccc3)oc2C)cc1)N/C(C)=C\C(=O)c1ccc(C(F)(F)F)cc1 | 102 ± 1.4%
45 | Brc1c(NC2=NCCN2)ccc2nccnc12 [UK 14,304 tartrate] | 95.97 ± 0.2%
